# According to PubChem BioAssay AID1961 (Sanford-Burnham Center for Chemical Genomics, 2009):
# The campaign covered roughly 290,000 compounds. About 140 (0.048%) were called active. This list was built around the results that the source calls inconclusive (neither active nor inactive); the mix of calls is not that of the screen.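 Rule for the calls: active = activation above 40% with more than 50 cells counted in the well; inconclusive = wells holding fewer than 50 cells, flagged as toxic or sparse; inactive = the rest.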
# Target: G-protein coupled receptor 55 (Homo sapiens) (UniProt Q9Y2T6)
# Test: selective activators of receptor GPR55 – imaging, U2OS cells, beta-arrestin-GFP redistribution, primary screen (AID 1961);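 note: U2OS osteosarcoma cells stably expressing GPR55 and beta-arrestin-GFP; plate controls were DMSO negative control for no effect and LPI positive control for full effect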
# Details: at 10 µM, stronger effect = higher value
# Sequence of UniProt Q9Y2T6 (Q9Y2T6 whole entry, looked up): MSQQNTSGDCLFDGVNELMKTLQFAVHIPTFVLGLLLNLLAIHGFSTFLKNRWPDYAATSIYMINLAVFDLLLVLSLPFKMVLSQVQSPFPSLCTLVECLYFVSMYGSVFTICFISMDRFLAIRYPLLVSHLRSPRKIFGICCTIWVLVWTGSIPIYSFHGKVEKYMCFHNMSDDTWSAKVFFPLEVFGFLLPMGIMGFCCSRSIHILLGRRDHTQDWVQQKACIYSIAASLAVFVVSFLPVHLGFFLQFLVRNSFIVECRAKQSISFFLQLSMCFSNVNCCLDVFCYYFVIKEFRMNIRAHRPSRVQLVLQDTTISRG
row,Structure (SMILES),activation
1,Cc1ccc(Cc2c(C)nc3nc(SCC(=O)NCCCN4CCCCCC4)nn3c2C)cc1,inconclusive: 0%
2,O=[N+]([O-])c1cccc(S(=O)(=O)NCCc2cccs2)c1,inconclusive: 0%
3,CCN(CC)c1ccc(/C=C2\CCC(/C=C(\C#N)C(=O)Nc3ccccc3F)=C2N2CCOCC2)cc1,inconclusive: -0.2%
4,COc1ccc(S(=O)(=O)N2CCC(C(=O)NC3CCCCC3C)CC2)cc1 (stereo unspecified),inconclusive: 0%
5,CCCC1CCC(c2ccc(C(=O)NN)cc2)CC1 (stereo unspecified),inconclusive: -0.2%
6,O=[N+]([O-])c1cccc(NC(=S)NCCc2ccccc2)c1,inconclusive: -0.1%
7,CCOC(=O)c1cccc(NC(=O)COc2nsnc2N2CCOCC2)c1,inconclusive: 0%
8,CCOC(=O)Cn1c(CN2CCN(C(c3ccccc3)c3ccccc3)CC2)nc2c1c(=O)n(C)c(=O)n2C,inactive: 0.3%
9,N#Cc1cc(C#N)c(SCC(=O)NCC2CCCO2)nc1N (stereo unspecified),inconclusive: 0%
10,O=C(CNC(=O)c1ccccc1F)N/N=C/c1cn[nH]c1-c1ccccc1,inconclusive: -0.2%
11,O=C(COC(=O)c1ccc([N+](=O)[O-])o1)NC1CCS(=O)(=O)C1 (stereo unspecified),inconclusive: -0.2%
12,CCc1ccccc1NC(=O)c1ccc(-c2csc(C)n2)cc1,inactive: -0.1%
13,O=C(O)c1cccc(CSc2ncn[nH]2)c1,inactive: 0.4%
14,CCOc1ccccc1NC(=O)C1CCCN(S(=O)(=O)c2cccc3nsnc23)C1 (stereo unspecified),inconclusive: 21.5%
15,COc1ccc(C(=O)/C=C/c2ccc(N3CCCCC3)c([N+](=O)[O-])c2)c(OC)c1,inconclusive: -0.1%
16,O=C(NCc1ccco1)/C(=C\c1ccco1)NC(=O)c1ccccc1Cl,inconclusive: 0%
17,CC1CCC(C(C)C)C(OC(=O)Cn2c(-c3ccc(F)cc3)[n+](C)c3ccccc32)C1 (stereo unspecified),inactive: 0.6%
18,CN(C)C(=O)COC(=O)c1cccnc1Nc1ccccc1F,inconclusive: -0.2%
19,COc1ccccc1N1CCN(C(=O)c2c(C)noc2C)CC1,inconclusive: -0.2%

row,Structure (SMILES),activation
1,Cn1c(=O)c2c(nc(-n3ccnc3)n2Cc2ccc(Cl)cc2Cl)n(C)c1=O,inconclusive: -0.2%
2,CCOc1ccc2nc(SCC(=O)N3c4ccccc4Sc4ccccc43)sc2c1,inactive: 16.7%
3,CC(C)C(=O)Nc1nc(-c2ccc3c(c2)CCN3C(=O)C2CC2)cs1,inconclusive: 0%
4,COc1ccc(CNc2nc(-c3cccnc3)nn2S(C)(=O)=O)cc1,inactive: 1.3%
5,COc1ccc(Cl)cc1NC(=O)COc1ccc(S(=O)(=O)N2CCOCC2)cc1C,inconclusive: 0%
6,COc1ccc(-c2cc(C(F)(F)F)nc(SCC(=O)Nc3ccc4c(c3)OCO4)n2)cc1,inactive: -0.2%
7,Cc1ccc(SC[C@H](CC(C)C)N2CCN(CCc3ccccc3)CCC2=O)cc1,active: 193%
8,COc1cc2c3nnc(-c4ccc(F)cc4)c-3cn(Cc3ccccc3F)c2cc1OC,active: 76.7%
9,CC1CCN(S(=O)(=O)c2ccc(NC(=O)CNC3CCCCC3)cc2)CC1,inconclusive: 0%
10,CCCCCn1c(=S)[nH]c2cc(C(=O)N3CCN(C(=O)OCC)CC3)ccc2c1=O,inconclusive: 0%
11,CCOC(=O)c1c(CN2CCN(CCO)CC2)n(-c2ccccc2)c2cc(Br)c(O)cc12,inactive: 0.3%
12,Cc1cc(C(F)(F)F)nc(SCCN2CCCCC2)c1C#N,inactive: -0.2%
13,O=C(CSc1nnc(-c2ccncc2)n1-c1ccc(F)cc1)NNC(=O)c1cccc(O)c1,inconclusive: -0.2%
14,C/C(=N/NC(=O)Cc1cc(=O)[nH][nH]1)c1ccc([N+](=O)[O-])cc1,inconclusive: -0.1%
15,O=C(c1cccc(F)c1)N1CCN(C(=O)c2cc3nc(-c4ccco4)cc(C(F)(F)F)n3n2)CC1,inconclusive: 0%
16,COc1cccc(NC(=O)N2CCCC2C(=O)NC2CCCCC2)c1 (stereo unspecified),inconclusive: 0%
17,Cc1cnc(C(=O)OCC(=O)N(C(C)C)C(C)C)cn1,inconclusive: -0.3%
18,COc1cc(C2CC(c3ccccc3)=NN2c2ccccc2)ccc1OCC(=O)O (stereo unspecified),inactive: 0.9%
19,CN(C)c1ccc(/C=N/NC(=O)C2CC2c2ccccc2)cc1 (stereo unspecified),inactive: -0.2%

row,Structure (SMILES),activation
1,CC1=NNC(=O)/C1=C\c1cn(-c2ccccc2)nc1-c1ccccc1,active: 68.5%
2,COc1ccc(S(=O)(=O)Nc2ccc3c(c2)n(C)c(=O)n3C)cc1C,inconclusive: 0%
3,CN(C)CCNc1nc(S(=O)(=O)c2ccccc2)c(Cl)s1,inconclusive: -0.1%
4,CSc1nc(C=Nc2ccccc2Cl)c(O)n1Cc1cccc(Cl)c1,inconclusive: -0.3%
5,CC1CCc2c(nc3sc4c(c3c2N)CCCC4)C1 (stereo unspecified),inconclusive: -0.2%
6,Cc1ccccc1OCCSc1nnc(-c2cccnc2)n1N,inconclusive: -0.1%
7,O=C(O)c1ccc(NC(=O)C2CC=CCC2C(=O)O)cc1 (stereo unspecified),inconclusive: -0.3%
8,CC1CCC(C(C)C)C(OC(=O)Cn2c(-c3ccccc3)[n+](C)c3ccccc32)C1 (stereo unspecified),inactive: -0.3%
9,CSc1ccccc1OCc1cc(C(=O)N2CCc3sccc3C2)no1,inactive: -0.2%
10,CCOc1cccc(-c2nnc3n2N=C(c2cc(OC)ccc2OC)CS3)c1,active: 100%
11,O=C(COC(=O)c1ccccc1NS(=O)(=O)c1cccs1)NC1CCCCC1,inconclusive: -0.2%
12,CCCOc1cccc(C2C(C(=O)c3ccco3)=C(O)C(=O)N2c2nnc(C)s2)c1 (stereo unspecified),inconclusive: 0%
13,CCS(=O)(=O)N1CCC(C(=O)N2CCc3ccccc3C2)CC1,inactive: 0%
14,Cc1cc(Cl)ccc1OCC(=O)N[C@@H](Cc1ccccc1)c1nc2ccccc2[nH]1,inconclusive: -0.2%
15,Cc1ccc(C(=O)NC(=S)/C=C2\N(C)c3ccccc3C2(C)C)cc1,inactive: 0.2%
16,Cc1nccn1CCCNC(=O)c1nc(Cn2cc([N+](=O)[O-])cn2)no1,inconclusive: 0%
17,Cc1ccc(C)c2nc3sc(C(=O)N4CCCc5ccccc54)c(N)c3cc12,inactive: 0.3%
18,COc1ccc(C2CC(c3ccc(F)cc3)=NN2c2ccccc2)cc1OC (stereo unspecified),inactive: -0.1%
